# Data reported in the supplement of paper PMC7826260.
# The list shows a part of the results. Cleavage of a single-stranded DNA pool by Rep nickase domains was read by sequencing (3 µM enzyme, 1 h, 37 °C); shown is the middle of each 90-letter strand. Numbers give uncut DNA relative to the enzyme-free pool, as log2; more negative means more cut, near 0 not cut, and no call is made. Counts are relative to all reads; where an enzyme cuts many sequences, the uncut ones exceed 0.
# How the values were obtained:
# Experiment in all cases: uncleaved DNA left, log2 of reads against the no-enzyme library (log2 ratio); higher = less cleavage (more negative = more Rep cleavage of the k-mer); sequences stand for … in CTCGTCCG…ACCGGAGA
# [1] = system: T1, Rep nickase domain of Muscovy duck circovirus
# T1 sequence (protein, residues 1-111, tag omitted): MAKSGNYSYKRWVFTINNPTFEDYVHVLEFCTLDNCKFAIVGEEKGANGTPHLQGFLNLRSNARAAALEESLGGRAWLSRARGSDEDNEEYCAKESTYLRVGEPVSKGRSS
# Description: (§1)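 A pool of 90-nt single-stranded DNAs with seven random bases just before the constant AC of the nick site (name = the seven bases) was cut by 3 µM recombinant His6-SUMO-tagged Rep nickase domain (300 nM DNA, 50 mM HEPES pH 8.0, 50 mM NaCl, 1 mM MnCl2, 1 h, 37 °C, three replicates). Uncut DNA was amplified and sequenced.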
# [2] = system: T2, Rep nickase domain of banana bunchy top virus
# T2 sequence (protein, residues 1-94, tag omitted): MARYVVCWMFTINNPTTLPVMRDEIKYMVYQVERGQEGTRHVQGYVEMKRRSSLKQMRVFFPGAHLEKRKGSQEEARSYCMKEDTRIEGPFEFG
# Description: as §1
# [3] = system: T3, Rep nickase domain of cabbage leaf curl virus
# T3 sequence (protein, residues 1-116, tag omitted): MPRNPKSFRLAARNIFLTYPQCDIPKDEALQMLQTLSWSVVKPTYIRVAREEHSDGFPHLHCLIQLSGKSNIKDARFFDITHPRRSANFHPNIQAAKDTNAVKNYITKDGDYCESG
# Description: as §1
# [4] = system: T4, Rep nickase domain of chickpea chlorotic dwarf virus
# T4 sequence (protein, residues 1-124, tag omitted): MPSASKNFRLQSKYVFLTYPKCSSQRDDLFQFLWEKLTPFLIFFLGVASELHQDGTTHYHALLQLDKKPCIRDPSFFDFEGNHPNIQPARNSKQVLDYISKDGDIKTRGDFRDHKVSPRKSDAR
# Description: as §1
# [5] = system: T5, Rep nickase domain of faba bean necrotic yellows virus
# T5 sequence (protein, residues 1-98, tag omitted): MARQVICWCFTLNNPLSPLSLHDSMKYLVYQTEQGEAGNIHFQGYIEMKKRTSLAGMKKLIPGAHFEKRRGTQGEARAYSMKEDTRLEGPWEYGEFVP
# Description: as §1
# [6] = system: T6, Rep nickase domain of maize striate mosaic virus
# T6 sequence (protein, residues 1-117, tag omitted): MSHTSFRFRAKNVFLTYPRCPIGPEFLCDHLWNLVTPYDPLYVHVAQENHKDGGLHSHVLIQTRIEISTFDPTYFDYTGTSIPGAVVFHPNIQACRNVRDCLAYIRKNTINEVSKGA
# Description: as §1
# [7] = system: T7, Rep nickase domain of porcine circovirus 2
# T7 sequence (protein, residues 2-116, tag omitted): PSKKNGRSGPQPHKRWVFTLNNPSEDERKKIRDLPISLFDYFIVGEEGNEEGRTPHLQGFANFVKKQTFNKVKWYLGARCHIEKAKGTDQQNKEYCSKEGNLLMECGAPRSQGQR
# Description: as §1
# [8] = system: T8, Rep nickase domain of tomato golden mosaic virus
# T8 sequence (protein, residues 1-124, tag omitted): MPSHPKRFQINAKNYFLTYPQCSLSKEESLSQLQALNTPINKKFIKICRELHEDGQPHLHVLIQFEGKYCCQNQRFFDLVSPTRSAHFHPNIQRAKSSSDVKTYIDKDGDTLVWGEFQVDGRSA
# Description: as §1
# [9] = system: T9, Rep nickase domain of tomato yellow leaf curl virus
# T9 sequence (protein, residues 1-136, tag omitted): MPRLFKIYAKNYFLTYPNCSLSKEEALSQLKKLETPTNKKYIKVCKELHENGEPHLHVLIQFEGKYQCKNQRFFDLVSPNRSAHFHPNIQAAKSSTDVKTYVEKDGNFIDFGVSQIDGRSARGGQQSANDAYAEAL
# Description: as §1
# [10] = system: T10, Rep nickase domain of wheat dwarf virus
# T10 sequence (protein, residues 1-137, tag omitted): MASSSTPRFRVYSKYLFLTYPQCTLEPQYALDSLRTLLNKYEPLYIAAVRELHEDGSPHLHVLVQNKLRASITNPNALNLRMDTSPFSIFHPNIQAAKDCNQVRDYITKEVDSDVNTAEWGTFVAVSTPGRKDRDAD
# Description: as §1
Sequence,uncleaved DNA left (log2) [1],uncleaved DNA left (log2) [2],uncleaved DNA left (log2) [3],uncleaved DNA left (log2) [4],uncleaved DNA left (log2) [5],uncleaved DNA left (log2) [6],uncleaved DNA left (log2) [7],uncleaved DNA left (log2) [8],uncleaved DNA left (log2) [9],uncleaved DNA left (log2) [10]
CCGGCGT,-0.058,-0.315,-0.814,-0.664,0.116,-0.54,-0.0165,-0.0924,-0.164,-0.219
CGAGGGA,-0.0999,-0.138,0.0733,0.546,-0.114,0.772,-0.116,-0.055,-0.131,-0.0211
GCTACCC,-0.0567,0.0741,0.0278,-0.33,0.0189,0.263,-0.525,0.026,0.0702,0.04
CTCACGT,-0.117,-0.0607,-0.0682,-0.31,-0.0352,-0.342,-0.0832,-0.144,-0.0729,-0.181
CCGTGAT,-0.0282,-0.132,-0.568,-0.0356,-0.195,1.17,-2.38,-0.207,-0.0966,-0.544
CGAGGAA,-0.0123,0.0391,0.22,0.835,-0.0283,0.871,-0.0543,-0.0819,-0.096,-0.0646
TTTACTA,-0.0579,0.00827,0.0605,-1.77,0.0171,0.501,-0.115,-0.0307,0.0246,0.0694
CGAGAGC,0.0852,0.11,0.0307,0.352,0.154,-0.302,0.136,0.151,0.0399,0.136
TGGCTAT,0.00535,-0.00557,0.381,0.881,0.0775,1.24,0.11,-0.154,0.107,0.0887
TATTGGC,0.0169,-0.0435,-0.422,-0.854,-0.0454,-1.16,-0.00996,-0.1,0.019,-0.022
AAAATGG,0.0844,0.0666,-0.192,-0.159,0.0481,-0.945,0.16,0.153,0.0671,0.073
ACATAAT,-2.22,-0.0416,-0.418,-1.7,0.0508,-0.924,-3.49,0.00411,-0.122,-0.0218
TAACTGC,0.0326,-0.098,-0.305,-0.929,-0.00263,-0.457,0.0492,-0.141,-0.0995,-0.0369
CCCGATG,-0.111,-0.263,-0.235,-0.0842,-0.0701,-0.441,-0.0955,-0.331,-0.24,-0.209
CTGGACT,-0.0205,0.0124,0.496,1.01,0.0392,1.74,0.0882,-0.0904,0.0647,0.113
CGTAGGA,0.174,0.0786,0.249,0.473,0.0897,-0.145,0.0533,0.085,0.09,0.141
ACCCGAA,0.0504,-0.0594,0.14,0.399,-0.0386,-0.48,-0.0241,0.0174,-0.153,0.102
CCGGGAG,0.124,-0.0821,-0.128,0.232,-0.0959,-0.244,0.195,0.179,0.0216,0.114
ACATGCA,-0.00418,0.0317,-0.537,-0.667,0.0871,-0.979,0.131,0.038,0.238,0.0121
CCTTTGC,-0.0386,0.008,-0.799,-0.351,0.0708,-0.994,0.13,-0.0447,0.0929,0.0623

Sequence,uncleaved DNA left (log2) [1],uncleaved DNA left (log2) [2],uncleaved DNA left (log2) [3],uncleaved DNA left (log2) [4],uncleaved DNA left (log2) [5],uncleaved DNA left (log2) [6],uncleaved DNA left (log2) [7],uncleaved DNA left (log2) [8],uncleaved DNA left (log2) [9],uncleaved DNA left (log2) [10]
TACTATA,-1.44,-0.318,-0.507,-2.87,-0.152,-0.648,-3.17,-0.0772,-0.0191,-0.118
CAAGACA,-0.0608,-0.0327,0.0643,-1.79,-0.0704,0.062,-0.0483,0.00812,0.0167,-0.107
CAACATA,-0.0743,-0.237,-0.36,-2.12,-0.135,-0.499,-0.231,-0.166,-0.119,-0.19
ACGATGG,0.0137,-0.0773,-0.598,-0.315,-0.0766,-0.886,0.000696,-0.0839,-0.0433,0.00622
GCCGCGT,0.0396,0.0438,-0.49,-0.069,0.134,-0.444,0.287,0.087,0.0435,0.0446
CATTTGG,-0.00376,-0.104,-0.793,-0.75,-0.041,-1.1,0.146,-0.047,-0.0185,-0.0924
AAAAAGG,0.0445,0.0444,0.163,0.538,-0.0565,-0.376,0.199,0.094,0.0175,0.0155
CTTACAC,-0.00748,-0.154,-0.195,-2.41,-0.056,-0.805,-0.00966,-0.0934,-0.0954,-0.111
CCCAACG,0.0146,0.0365,-0.83,-0.229,0.0839,-1.14,0.266,0.0688,0.0734,0.00374
GAACCAT,0.0233,0.099,0.691,0.864,-0.0155,1.95,0.172,0.0494,0.111,0.206
CAAATGC,0.0262,-0.00495,-0.774,-0.69,0.0983,-1.31,0.0902,-0.0455,0.0806,-0.0695
CGGAGTT,-0.0299,-0.138,0.207,-0.565,-0.189,0.427,-0.316,-0.0821,-0.0523,0.0116
AGGTTAC,0.0273,-0.0487,-0.0203,-0.786,-0.113,-0.087,0.0921,-0.0752,-0.0855,-0.0552
CAGTTAC,-0.0473,-0.0818,-0.319,-1.88,-0.122,-0.963,-1.71,-0.0892,-0.0346,-0.227
TCAGGTC,0.0682,0.0682,0.371,0.811,-0.00309,1.17,0.0146,0.0927,-0.00331,-0.0218
GGGACAA,0.0846,0.16,0.987,2.24,-0.0197,2.39,0.223,-0.0364,-0.161,0.235
GCCGCGC,0.00378,-0.0812,-0.496,-0.152,0.031,-0.543,0.0235,-0.00979,-0.14,-0.272
GCGCTCT,-0.0416,0.0136,-0.0251,-0.627,0.00886,0.101,-0.0817,0.0263,-0.0359,0.0853
GGCTCCT,-0.0344,-0.0416,0.159,0.203,-0.0165,0.827,-0.483,-0.115,0.049,0.0455
CCGGGGG,-0.14,-0.0809,0.294,0.709,-0.0946,1.14,0.112,-0.0187,-0.103,-0.177

Sequence,uncleaved DNA left (log2) [1],uncleaved DNA left (log2) [2],uncleaved DNA left (log2) [3],uncleaved DNA left (log2) [4],uncleaved DNA left (log2) [5],uncleaved DNA left (log2) [6],uncleaved DNA left (log2) [7],uncleaved DNA left (log2) [8],uncleaved DNA left (log2) [9],uncleaved DNA left (log2) [10]
AGGGTTC,-0.00835,-0.129,0.0229,0.413,-0.229,0.734,-0.0917,-0.0675,-0.0328,-0.0702
ATGGGCT,0.0382,0.0173,0.0966,0.394,0.0693,0.519,0.0971,0.0588,-0.191,-0.117
CGGGTCC,0.0132,-0.0692,0.423,0.829,-0.124,1.24,0.00648,-0.147,-0.0151,-0.0209
CAGCTAG,-0.176,-0.204,-0.471,-0.421,-0.211,-1.07,-0.0377,-0.198,-0.267,-0.0742
CGTTACA,0.0997,0.0685,-0.0147,-1.55,0.0119,-0.122,-0.00468,0.0158,0.129,0.0477
CATGACC,-0.166,-0.0802,-0.00741,0.293,-0.0609,0.245,-0.00739,-0.0494,-0.0222,-0.103
ATAACCT,-0.0611,0.0165,-0.383,-2.39,0.0474,-0.652,-0.697,-0.0204,-0.0679,0.0228
TTCGATA,0.0985,-0.111,0.0981,-1.06,0.0717,-0.289,0.0724,0.039,0.0141,0.0396
ATGCACC,0.114,0.0456,-0.0463,-0.0771,0.129,-0.491,-0.0606,-0.105,0.00253,0.0348
ACCTTGG,-0.143,-0.0321,-0.874,-0.386,-0.135,-1.24,0.0335,-0.117,-0.071,-0.175
ATGTAGG,-0.118,0.0227,0.127,0.738,0.00343,0.245,0.13,0.0784,-0.142,0.0259
CTATACA,-0.189,0.0748,0.0104,-2.11,0.00283,-0.59,-0.128,0.0168,0.123,0.17
CTGGGGT,0.0602,0.0432,0.393,1.08,-0.129,1.45,0.152,0.0258,-0.00398,0.128
GGCTGGC,0.15,0.0025,0.472,1.04,0.0802,1.43,0.209,0.206,0.118,0.0512
TTCTCCC,0.00244,-0.217,0.00733,-0.0234,-0.0968,0.607,-0.146,-0.241,-0.0393,-0.138
ATCCTGA,0.0567,0.106,0.294,1.02,0.0537,0.963,0.142,0.0924,0.06,0.0244
GCGGTAG,0.082,0.0517,-0.0914,0.294,0.0813,-0.298,0.141,-0.0379,-0.014,-0.0318
GCCAGCT,-0.145,-0.0965,-0.302,-0.217,-0.147,-0.477,0.0342,-0.0467,-0.21,-0.0409
CGTCTCT,-0.0586,-0.126,-0.119,-1.48,-0.101,-0.221,-0.355,-0.146,-0.0297,-0.181
GGCTTGG,0.0851,0.062,0.178,0.557,0.0455,0.756,0.124,0.0928,0.0247,0.0448
